# Laboratory results from article PMC7791157 (Cell Research, 2021).
# Target: T1, FLAG-tagged SARS-CoV-2 S (SARS-CoV-2)
# T1 construct: also called S glycoprotein
# Test: pull-down
# Details: both partners purified
binder,measurement,value
"His-tagged AXL ([…]) (domain or fragment, also called recombinant His-tagged AXL; His-AXL) not shown",binding result,binds
